This note sets out measurements from PMC4207660, “Identification and Characterization of Hundreds of Potent and Selective Inhibitors of Trypanosoma brucei Growth from a Kinase-Targeted Library Screening Campaign” (PLoS Neglected Tropical Diseases, 2014).

≈ marks a conversion by molar mass, not a printed value.

Series [1] concerns T. brucei brucei parasites (Lister 427 strain). Put plainly: Dose response growth inhibition assay (resazurin, 72 h). The format is cell-based. The conditions noted are these: Trypanosoma brucei; T. b. brucei growth inhibition; read-out: Tbb pEC50 (converted). Here is the method:
Greiner sterile black clear bottom 384-well assay plates were pre-dispensing with 200 nL of compound in each well, from master plates at 1 mM (100% DMSO) containing selection from the GSK compound collection. Controls of 0% response (control 1, 200 nL of 100%DMSO) and 100% response (control 2, 200 nL of 1 mM pentamidine) were included in each assay plate in columns 6 and 18, respectively. Plates containing 200 nL of 100% DMSO were included randomly in the assay, to assess quality through all process. […] After this period, 10 µL of 200 µM resazurin solution in prewarmed HMI-9 were added to each well, and plates were allowed to incubate 2 hours more prior fluorescence reading in a Wallac EnVision Multilabel Plate Reader (Perkin-Elmer). Raw fluorescent data from the Envision plate reader were uploaded into GSK HTS database (ActivityBase). Activity of each well was normalized as a percentage of inhibition per-plate basis using the following equation: [drawing 1]
For dose-response experiments, serial compound dilutions of selected hits from the primary campaign were plotted against compound concentration. Dose response master plates were prepared by 3-fold dilutions (starting with 10 mM DMSO stock solutions), providing 11 concentrations. From these master plates, 200 nL per well was stamped in final assay plates, including the same controls describe in the primary single shot assay. Compounds were dispensed as serial dilution curve format, with 11 points at 3-fold dilution and 40 µM as starting top concentration (n = 2). Growth inhibition assay was performed as described in previous assay.
A 4-parameter equation describing a sigmoidal dose-response curve was then fitted with an adjustable baseline using ActivityBase XE Runner software. Fitting of dose-response curves and EC50 determination were normalized as percentage of inhibition based on controls. The curve-fit model was based on a 4-parameter equation: [drawing 2]
Trypanosome cell culture. […]
(Alamar Blue is a resazurin reagent that responds to reducing activity.)

The nature of series [2]: CLND kinetic solubility assay. The conditions noted are these: phosphate buffered saline, pH 7.4, aqueous buffer, kinetic from dmso stock; Measured; read-out: Aq Sol. The format is physicochemical. The protocol: 5 µL of 10 mM DMSO stock solution was diluted to 100 µL with pH 7.4 phosphate buffered saline, equilibrated for 1 hour at room temperature, filtered through Millipore MultiscreenHTS-PCF filter plates (MSSL BPC). The filtrate was quantified by suitably calibrated flow injection Chemi-Luminescent Nitrogen Detection.

For series [3], the target named is T1, Human Serum Albumin (HSA) (Homo sapiens, UniProt P02768).
T1 construct: purchased Chiral Technologies, France
Put plainly: Protein binding assay (HPLC stationary phase), HSA. The format is in vitro ADME. The conditions noted are these: Measured. The protocol:
Chemically bonded Human Serum Albumin (HSA) and Alpha-1-acidglycoprotein HPLC stationary phases (Chiral Technologies, France) were used for measuring compounds' binding to plasma proteins, applying linear gradient elution up to 30% iso-propanol. The run time was 6 min, including the re-equilibration of the stationary phases with the 50 mM pH7.4 ammonium acetate buffer. The obtained gradient retention times were standardised using a calibration set of mixtures as described in the references. The average standard error of the assay depends on the binding strength and kinetics of the compounds.

Turning to `Nc1cc(-c2ccc3ncnc(N4CCOCC4)c3c2)cnc1N` [NEU-0001111], in series [1], the EC50 is 126 nM.
On to `COc1ncc(-c2ccc3nc(N)c(C#N)cc3c2)cc1NS(=O)(=O)c1ccc(F)cc1F` [NEU-0001112], for which the EC50 in series [1] is 501 nM. Moreover, the solubility kinetic at 1 h in series [2] amounted to 21 µM (≈ 9.82 µg/mL). This molecule also returned an HSA % binding in series [3] of 96.63%.
For the molecule `NS(=O)(=O)c1cccc(-c2ccc3nccc(-c4cn[nH]c4)c3c2)c1` [NEU-0001113], the EC50 in series [1] was 398 nM. In series [2], the solubility kinetic at 1 h came to 35 µM (≈ 12.3 µg/mL). This molecule came in with an HSA % binding in series [3] of 95.92%.
